# Over roughly 2,900 compounds, “IRF Lucia reporter activity, fold change vs agonist alone” has its median near 0.9; the highest 2% begin near 2.8. The list shows a part of the results.
# Assays:
# RAW-Dual [1] = test: IRF Lucia reporter activity, fold change vs agonist alone; cytotoxicity flag (confluency mask): not cytotoxic; higher = enhanced IRF activity
# Summary of the method: (§1)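 Supernatant from RAW-Dual macrophages was read after 20 hours for IRF by QuantiLuc luminescence and for NF-κB by QuantiBlue absorbance at 620 nm. The cells (50,000 cells/well in DMEM, 384-well plates, 37 °C, 5% CO2) had received 50 nL of library stock by pin tool and, 1 h later, a PRR agonist. Reporter activity is expressed relative to agonist-alone wells as fold change, and wells were flagged cytotoxic if IncuCyte confluency was under 70% of agonist controls in both mask sets.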
# RAW-Dual [2] = test: IRF Lucia reporter activity, fold change vs agonist alone; higher = enhanced IRF activity; conditions: agonist: MPLA (TLR4) […]
# Summary of the method: as §1
# RAW-Dual [3] = test: IRF Lucia reporter activity, fold change vs agonist alone; cytotoxicity flag (confluency mask): cytotoxic (confluency <70% of control); higher = enhanced IRF activity
# Summary of the method: as §1
# [4] = agonist: 3'3'-cGAMP (STING) 10 ug/mL
# [5] = library stock concentration (final ~1000-fold dilution): 10 mM, cytotoxicity flag (confluency mask): not cytotoxic
# [6] = library stock concentration (final ~1000-fold dilution): 10 mM, cytotoxicity flag (confluency mask): cytotoxic (confluency <70% of control)
structure (smiles),measurement,setting,value
CC(=O)OC1(C(C)=O)CCC2C3C=C(Cl)C4=CC(=O)CCC4(C)C3CCC21C (stereo not given) (library stock concentration (final ~1000-fold dilution): 10 mM),IRF Lucia reporter activity,RAW-Dual [1]; [4],1.13
same,IRF Lucia reporter activity,RAW-Dual [1]; agonist: LPS (TLR4) 0.1 ug/mL,0.873
CC(=O)OC1(C(C)=O)CCC2C3C=C(Cl)C4=CC(=O)CCC4(C)C3CCC21C (stereo not given),IRF Lucia reporter activity,RAW-Dual [2]; [5],1.03
CN1CCc2c(c3ccccc3n2Cc2ccccc2)C1.CN1CCc2c(c3ccccc3n2Cc2ccccc2)C1.O=S(=O)(O)c1cccc2c(S(=O)(=O)O)cccc12,IRF Lucia reporter activity,"RAW-Dual [2]; library stock concentration (final ~1000-fold dilution): 2 mM, cytotoxicity flag (confluency mask): not cytotoxic",1.25
CN1CCc2c(c3ccccc3n2Cc2ccccc2)C1.CN1CCc2c(c3ccccc3n2Cc2ccccc2)C1.O=S(=O)(O)c1cccc2c(S(=O)(=O)O)cccc12 (library stock concentration (final ~1000-fold dilution): 2 mM),IRF Lucia reporter activity,RAW-Dual [1]; [4],1.04
same,IRF Lucia reporter activity,RAW-Dual [1]; agonist: LPS (TLR4) 0.1 ug/mL,1
CCOc1ccc(Cc2cc(C3OC(CO)C(O)C(O)C3O)ccc2Cl)cc1 (stereo not given) (library stock concentration (final ~1000-fold dilution): 10 mM),IRF Lucia reporter activity,RAW-Dual [1]; [4],1.02
same,IRF Lucia reporter activity,RAW-Dual [1]; agonist: LPS (TLR4) 0.1 ug/mL,0.922
CCOc1ccc(Cc2cc(C3OC(CO)C(O)C(O)C3O)ccc2Cl)cc1 (stereo not given),IRF Lucia reporter activity,RAW-Dual [2]; [5],0.987
Cc1c[nH]c(C=C2C(=O)Nc3ccccc32)c1CCC(=O)O (library stock concentration (final ~1000-fold dilution): 10 mM),IRF Lucia reporter activity,RAW-Dual [1]; [4],0.186
same,IRF Lucia reporter activity,RAW-Dual [1]; agonist: LPS (TLR4) 0.1 ug/mL,0.728
O=C(CCCCCCCC(=O)NCCO)NCCO (library stock concentration (final ~1000-fold dilution): 10 mM),IRF Lucia reporter activity,RAW-Dual [1]; [4],0.904
same,IRF Lucia reporter activity,RAW-Dual [1]; agonist: LPS (TLR4) 0.1 ug/mL,1.07
CCN(CC)Cc1ccc(C(=O)N(CCc2ccccc2OC)C2CCNC2)cc1 (stereo not given) (library stock concentration (final ~1000-fold dilution): 10 mM),IRF Lucia reporter activity,RAW-Dual [1]; [4],0.105
same,IRF Lucia reporter activity,RAW-Dual [1]; agonist: LPS (TLR4) 0.1 ug/mL,0.599
CCN(CC)Cc1ccc(C(=O)N(CCc2ccccc2OC)C2CCNC2)cc1 (stereo not given),IRF Lucia reporter activity,RAW-Dual [2]; [5],0.837
CCN(CCCc1ccccc1)CCCc1ccccc1.O=C(O)CC(O)(CC(=O)O)C(=O)O,IRF Lucia reporter activity,RAW-Dual [2]; [6],1.11
CCN(CCCc1ccccc1)CCCc1ccccc1.O=C(O)CC(O)(CC(=O)O)C(=O)O (library stock concentration (final ~1000-fold dilution): 10 mM),IRF Lucia reporter activity,RAW-Dual [3]; [4],0.709
same,IRF Lucia reporter activity,RAW-Dual [3]; agonist: LPS (TLR4) 0.1 ug/mL,0.898
Cc1cc(CS(=O)(=O)c2ccccc2)cc(OCc2ccc(CN3CCCC3CO)cc2)c1 (stereo not given),IRF Lucia reporter activity,RAW-Dual [2]; [5],1.35
Cc1cc(CS(=O)(=O)c2ccccc2)cc(OCc2ccc(CN3CCCC3CO)cc2)c1 (stereo not given) (library stock concentration (final ~1000-fold dilution): 10 mM),IRF Lucia reporter activity,RAW-Dual [1]; [4],0.272
same,IRF Lucia reporter activity,RAW-Dual [1]; agonist: LPS (TLR4) 0.1 ug/mL,1.27
CCc1cc(Nc2nccc(-c3c(-c4ccc(OC)c(C(=O)Nc5c(F)cccc5F)c4)nc4ccccn34)n2)c(OC)cc1N1CCC(N2CCN(S(C)(=O)=O)CC2)CC1 (library stock concentration (final ~1000-fold dilution): 10 mM),IRF Lucia reporter activity,RAW-Dual [1]; [4],0.724
same,IRF Lucia reporter activity,RAW-Dual [1]; agonist: LPS (TLR4) 0.1 ug/mL,1.28
CCc1cc(Nc2nccc(-c3c(-c4ccc(OC)c(C(=O)Nc5c(F)cccc5F)c4)nc4ccccn34)n2)c(OC)cc1N1CCC(N2CCN(S(C)(=O)=O)CC2)CC1,IRF Lucia reporter activity,RAW-Dual [2]; [5],1.06
Cc1nc(Nc2n[nH]c3c2CN(C(=O)NC(CN(C)C)c2ccccc2)C3(C)C)c2sccc2n1 (stereo not given),IRF Lucia reporter activity,RAW-Dual [2]; [6],0.0215
Cc1nc(Nc2n[nH]c3c2CN(C(=O)NC(CN(C)C)c2ccccc2)C3(C)C)c2sccc2n1 (stereo not given) (library stock concentration (final ~1000-fold dilution): 10 mM),IRF Lucia reporter activity,RAW-Dual [3]; [4],0.0178
same,IRF Lucia reporter activity,RAW-Dual [3]; agonist: LPS (TLR4) 0.1 ug/mL,0.0152
O=C1c2cccc3c2C(CCC3)CN1C1CN2CCC1CC2 (stereo not given) (library stock concentration (final ~1000-fold dilution): 10 mM),IRF Lucia reporter activity,RAW-Dual [1]; [4],0.379
same,IRF Lucia reporter activity,RAW-Dual [1]; agonist: LPS (TLR4) 0.1 ug/mL,0.888
O=C1c2cccc3c2C(CCC3)CN1C1CN2CCC1CC2 (stereo not given),IRF Lucia reporter activity,RAW-Dual [2]; [5],0.982
O=C(Nc1ccccc1C(=O)NC1CCCCNC1=O)c1cc2ccccc2s1 (stereo not given) (library stock concentration (final ~1000-fold dilution): 10 mM),IRF Lucia reporter activity,RAW-Dual [1]; [4],0.887
same,IRF Lucia reporter activity,RAW-Dual [1]; agonist: LPS (TLR4) 0.1 ug/mL,2.75
NC(=O)C1CCC2CN1C(=O)N2OS(=O)(=O)O (stereo not given) (library stock concentration (final ~1000-fold dilution): 10 mM),IRF Lucia reporter activity,RAW-Dual [1]; [4],1.1
same,IRF Lucia reporter activity,RAW-Dual [1]; agonist: LPS (TLR4) 0.1 ug/mL,1.21
NC(=O)C1CCC2CN1C(=O)N2OS(=O)(=O)O (stereo not given),IRF Lucia reporter activity,RAW-Dual [2]; [5],1.13
CC(=O)O/N=C1/C(=O)N(Cc2cc(Cl)ccc2Cl)c2ccc(Cl)cc21,IRF Lucia reporter activity,RAW-Dual [2]; [5],0.945
CC(=O)O/N=C1/C(=O)N(Cc2cc(Cl)ccc2Cl)c2ccc(Cl)cc21 (library stock concentration (final ~1000-fold dilution): 10 mM),IRF Lucia reporter activity,RAW-Dual [1]; [4],0.257
same,IRF Lucia reporter activity,RAW-Dual [1]; agonist: LPS (TLR4) 0.1 ug/mL,0.868
CC(C)(C#N)c1cc(Cn2cncn2)cc(C(C)(C)C#N)c1,IRF Lucia reporter activity,RAW-Dual [2]; [5],1.06
CC(C)(C#N)c1cc(Cn2cncn2)cc(C(C)(C)C#N)c1 (library stock concentration (final ~1000-fold dilution): 10 mM),IRF Lucia reporter activity,RAW-Dual [1]; [4],0.986
same,IRF Lucia reporter activity,RAW-Dual [1]; agonist: LPS (TLR4) 0.1 ug/mL,0.315
COc1cc2nccc(Oc3ccc(NC(=O)Nc4cc(C)on4)c(Cl)c3)c2cc1OC,IRF Lucia reporter activity,RAW-Dual [2]; [5],0.536
COc1cc2nccc(Oc3ccc(NC(=O)Nc4cc(C)on4)c(Cl)c3)c2cc1OC (library stock concentration (final ~1000-fold dilution): 10 mM),IRF Lucia reporter activity,RAW-Dual [1]; [4],0.246
same,IRF Lucia reporter activity,RAW-Dual [1]; agonist: LPS (TLR4) 0.1 ug/mL,0.506
